According to the RNAGym collection of RNA variant scans (doi:10.7554/elife.90254):
Read counts are not given, so values of variants with three or more changes are uncertain.

B1: OR4K15 (parent)
chain: GUUAACGGUCAUAGGCCAUGGAAACUAGGAGCACCAUUUCGCUGCCAGUGAAGAAAUGAACAAAGAAAAUCUGGGCCAGGCAGGCAUCAAAAGAAAUAGUCUUGCGCUCAACCAGAAAGUCUGUAAUCAUUUUAAGGGUA

Variants of: B1
Test: self-cleavage, relative activity (ratio to wild type); higher = more cleavage; in vitro, sequencing; the parent is a self-cleaving ribozyme

| Variant | self-cleavage |
| --- | --- |
| U39A A52G U131C | 0.16 |
| U38C U108C A116G U132C | 0 |
| U38C A51U A56G U100A | 0.3 |
| U38C U43A A51G A68C C101U U102C A135U | 1.48 |
| U39C A78U A90G A91G C128U | 0.27 |
| U39A A116G U127C A135G | 0.34 |
| U38C U102C A110U A118G U132C | 0.89 |
| U39C A55U G93A | 0.37 |
| U39C A55G A67G A116G | 1.05 |
| U39A A69G U100C A125G G136A | 1.76 |
| U39A A69U A90G U100C A118G | 2.8 |
| U38G A67U A91G U102C | 1.91 |
| U38A U57C C71A A94G A111G A117G | 0.01 |
| U39C C42U A59G A67U A86G | 0.76 |
| U38G C46U A60G C61U A67G A89G | 1.61 |
| U39A A68G A92G U102C | 1.78 |
| U39C A56G U124C | 1.18 |
| U38C A51G A62G | 1.2 |
| U38C A68G U103A U132A | 0.79 |
| U39A A56G U70C U87A U103C U133C | 0.45 |
| U39C A52G A78G A90G A94G U103C A111G A117G | 0.01 |

| Variant | self-cleavage |
| --- | --- |
| U37C U103A A129G U133C | 0.78 |
| U39A A67G A78U | 0.3 |
| U39C A67G G115U A140G | 0.18 |
| U38C A96G A111G U122C | 0.01 |
| U38C A47G A63G A66G A96G G104A A110G | 0.02 |
| U39A A54G A86G U102A A114U | 0.01 |
| U38C A117G A126G | 1.47 |
| U38A A86G U130C | 1.26 |
| U38C G84A U87C A91G C101G | 0.11 |
| U39A A52U A82G A129G | 0.41 |
| U38A A89G A125G A134G | 0.34 |
| U38A A66G U122G | 2.89 |
| U38C A78U U108C | 0.02 |
| U39A A59G A82G U108C U127C | 0 |
| U39C A52G U70C G123A | 1.05 |
| U38C A67G U127C | 0.7 |
| U39C A62G A69C C112U | 0.03 |
| U38C A116G U133C | 1.58 |
| U39C A51U A129G | 1.1 |
| U38C A78G U132A | 0.36 |
| U38C U57C A67G U132C | 1.83 |

| Variant | self-cleavage |
| --- | --- |
| U37G A59U A86G | 1.88 |
| U39A A51G A126G U127C A129U | 0.22 |
| U39C A91U A114G | 0.63 |
| U39C A52G A67G U102A A140U | 1.23 |
| U38C A63G A68G A78G A90G A110G U122A | 0.04 |
| U39A U43C A62G A63G | 1.17 |
| U38C A51G A91G G106U A135G | 0.02 |
| U38C U43C C46A A68G | 1.37 |
| U38A G104A A114G | 0.03 |
| U39C A67G U103C U130C | 0.45 |
| U38A A52G A60G | 1.1 |
| U38C A135G U139C | 0.23 |
| U37C U57A A116G | 0.18 |
| U39A A51U U72C A91G | 0.09 |
| U39C A68G U132C | 2.06 |
| U39A A56G A68G | 1.6 |
| U39C A51G A64G A67G A68G U122C | 1.07 |
| U37C U72C A116G | 0.25 |
| U38C A60G A95U A111U | 0.1 |
| U38C A56G A64G A117G A140G | 0.6 |
| U39C A66U A116G | 1.04 |

| Variant | self-cleavage |
| --- | --- |
| U39C A62G U127C | 0.81 |
| U39A A63G U100C A110G | 0.16 |
| U38A A68G C81U C105U | 0.03 |
| U39C A51U A94G | 1.46 |
| U38C U49A A126U | 0.71 |
| U38C A110U U122A | 1.24 |
| U39C U43A U130C | 1.92 |
| U38C U43A U70C A92G | 0.58 |
| U38C U57A U108C A110U | 0.02 |
| U39C A60G U108C A126G | 0.01 |
| U39C U43C A62G A89G U124C | 1.39 |
| U39A U100C U122A | 1.39 |
| U38C A64G U130C U132C A135C | 1.07 |
| U38C U49A A117U | 0.86 |
| U39C A47G A95G U131C | 1.79 |
| U39C A56G A67G | 1.97 |
| U37G A111G A114G | 0.02 |
| U38C C71U A96G U102C A111G | 0.04 |
| U38C U49A A52G A69C U70A | 0.77 |
| U37C U57C A60U A114C | 0.02 |
